# Some of the results follow. Many values rest on one well or one pass, so single values are uncertain.
# Test system: G361
# Test: cell count relative to DMSO control; melanoma cells; higher = more viable cells
# Conditions: library dose: standard library concentration; 72 h
# 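Also: cells treated in 1,536-well plates, then fixed and DAPI-stained, with nuclei counted from automated high-throughput microscope images.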
row,SMILES,cell count [%]
1,"CS(=O)(=O)c1ccc(C(=O)Nc2ccc(Cl)c(-c3ccccn3)c2)c(Cl)c1 [vismodegib] + CCCCCCCCCCCC1=C(O)C(=O)C=C(O)C1=O [Embelin] (first compound 5 µM, partner dose 6 µM)",86.5
2,"CCCS(=O)(=O)Nc1ccc(F)c(C(=O)c2c[nH]c3ncc(Cl)cc23)c1F + COc1ccc(COc2ccc(Cc3cnc(N)nc3N)cc2OC)cc1 [GW2580] (first compound 0.4 µM, partner dose 5 µM)",64.7
3,"CN(c1ncccc1CNc1nc(Nc2ccc3c(c2)CC(=O)N3)ncc1C(F)(F)F)S(C)(=O)=O + CN(NC(=O)CC(=O)NN(C)C(=S)c1ccccc1)C(=S)c1ccccc1 [STA4783] (first compound 0.4 µM, partner dose 0.03 µM)",37.9
4,"C=C(c1ccc(C(=O)O)cc1)c1cc2c(cc1C)C(C)(C)CCC2(C)C [Bexarotene] + Cc1cc(N2CCOCC2)cc2[nH]c(-c3c(NC[C@@H](O)c4cccc(Cl)c4)cc[nH]c3=O)nc12 [BMS536924] (first compound 10 µM, partner dose 1 µM)",85.8
5,"CN(c1ncccc1CNc1nc(Nc2ccc3c(c2)CC(=O)N3)ncc1C(F)(F)F)S(C)(=O)=O + C#Cc1cccc(Nc2ncnc3cc(OCCOC)c(OCCOC)cc23)c1 [erlotinib] (first compound 0.4 µM, partner dose 4 µM)",56.1
6,"C=C(c1ccc(C(=O)O)cc1)c1cc2c(cc1C)C(C)(C)CCC2(C)C [Bexarotene] + CN(NC(=O)CC(=O)NN(C)C(=S)c1ccccc1)C(=S)c1ccccc1 [STA4783] (first compound 10 µM, partner dose 0.03 µM)",29.9
